PubChem BioAssay AID1745853 (National Center for Advancing Translational Sciences (NCATS), 2022)
The list shows a part of the results. The main result of the screen is listed elsewhere. These columns were measured beside it and carry no call.

Key:
Assay in all cases: Primary Screen for Target Class Profiling of Small Molecule Inhibitors of Methyltransferases
[1] = target: Glycine N-methyltransferase (Homo sapiens) (UniProt Q14749); conditions: purified enzyme, MTase-Glo SAH luminescence; measured here: GNMT inhibition; at 40 µM; stronger effect = lower value
How it was run: (§1)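 Each enzyme was assayed with SAM and its substrate. SAH formation detected by MTase-Glo luminescence; single-point 40 uM screen[…].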

[2] = target: Guanidinoacetate N-methyltransferase (Homo sapiens) (UniProt Q14353); conditions: purified enzyme, MTase-Glo SAH luminescence; measured here: GAMT inhibition; at 40 µM; stronger effect = lower value
How it was run: as §1

[3] = target: Histamine N-methyltransferase (Homo sapiens) (UniProt P50135); conditions: purified enzyme, MTase-Glo SAH luminescence; measured here: HNMT inhibition; at 40 µM; stronger effect = lower value
How it was run: as §1

[4] = target: Nicotinamide N-methyltransferase (Homo sapiens) (UniProt P40261); conditions: purified enzyme, MTase-Glo SAH luminescence; measured here: NNMT inhibition; at 40 µM; stronger effect = lower value
How it was run: as §1

[5] = target: Phenylethanolamine N-methyltransferase (Homo sapiens) (UniProt P11086); conditions: purified enzyme, MTase-Glo SAH luminescence; measured here: PNMT inhibition; at 40 µM; stronger effect = lower value
How it was run: as §1
On the % scale 0 is the no-effect control and ±100 the full control effect.

Compound | activity change, negative = inhibition [1] [%] | activity change, negative = inhibition [2] [%] | activity change, negative = inhibition [3] [%] | activity change, negative = inhibition [4] [%] | activity change, negative = inhibition [5] [%]
Cc1ccc(CCNC(=O)c2cc3n(n2)CC(C)(C(=O)NC2CCCC2)N(C)C3=O)cc1 (configuration not stated) | 6.46 | 0 | 3.87 | 11.9 | 3.24
CCOC(=O)c1cc2n(n1)CC(C)(C(=O)NC1CCCCC1)N(c1cc(C)ccc1C)C2=O (configuration not stated) | -1.93 | 2.31 | -12 | 0.919 | 2.01
Cc1ccc(NS(=O)(=O)c2ccc3[nH]c(=O)[nH]c3c2)c(C)c1 | 6.95 | 1.86 | 13.9 | -1.38 | -6.7
O=C(CCc1ccccc1)N1CCNc2cnc(Nc3cccnc3)nc2C1 | -54.8 | -51.1 | -71.8 | -61.9 | -49
O=C(c1cc(-c2ccc(Cl)cc2)c2nncn2n1)N1CCOCC1 | -5.62 | -6.22 | -2.67 | -10.3 | -6.42
O=C(O)c1ccnc(-c2ccnc(NCCN3CCCCC3CO)n2)c1 (configuration not stated) | 0.089 | 1.04 | -3.21 | -1.24 | 1.4
Cc1ccccc1N1C(=O)c2cc(C(C)(C)C)nn2CC1(C)C(=O)NC1CCCCC1 (configuration not stated) | -3.52 | 0 | 0.829 | -0.429 | -1.91
Cc1ccc(NS(=O)(=O)c2cc3[nH]c(=O)[nH]c3cc2C)cc1Cl | -6.37 | -1.78 | -5.96 | -20.4 | -23.2
Cc1ccccc1NC(=O)N1CCn2c(C)ccc2C1C(C)C (configuration not stated) | 9.64 | 0 | 0.925 | 0.095 | 3.58
CCC1(C(=O)NCCN2CCOCC2)CCCCC(=O)N1 (configuration not stated) | -1.67 | 0.327 | 0.691 | -3.95 | 9.01
Cn1c(=O)cc(N2CCCC(N)C2)n(Cc2ccccc2C#N)c1=O (configuration not stated) | 0.88 |  | 10.1 |  | 
CCCn1ccnc1-c1c(-c2ccccc2)ncn1CCCC(=O)OC | -3.73 | -6.97 | -2.05 | -10.1 | -8.34
CC1(C)CC[C@]23CO[C@@]4(CCC5[C@@]6(C)CC[C@H](O[C@@H]7OC[C@H](O[C@@H]8O[C@H](CO)[C@@H](O)[C@H](O)[C@H]8O[C@@H]8OC[C@@H](O)[C@H](O)[C@H]8O)[C@H](O)[C@H]7O)[C@@](C)(CO)C6CC[C@@]5(C)[C@]4(C)CC2=O)[C@@H]3C1 (some centres not stated) | 3.02 | 15.3 | 5.27 | 4.55 | 10.4
Cc1ccc(Cn2c(=O)c3ccccc3n3c(CCC(=O)N4CCOCC4)nnc23)cc1 | -4.45 | 1.05 | 12 | 9.31 | 3.53
Cc1c(C(=O)N[C@@H]2COCC[C@H]2Oc2ccc(C(N)=O)cc2)cnn1C | -2.71 | 1.04 | 1.87 | -2.16 | 12.6
CCN1CCN(C(=O)c2cc(-c3ccccc3OC)c3nncn3n2)CC1 | -5.54 | -6.05 | -3.98 | -12.8 | 1.87
O=C(Cc1ccsc1)NCC1CCCCC(=O)N1 (configuration not stated) | -6.32 | 0.011 | 2.2 | -4.56 | -1.04
CN(C)[C@@H]1CN(Cc2ccncc2F)CC[C@@H]1CNC(=O)C1CC1 | -2.25 | 0.002 | 0.189 | -3.4 | 0.647
CC[C@@H](C)Nc1cc(C(=O)NC2CC3CCC(C2)N3c2ccc(C(=O)C3CC3)cn2)c(C)cc1C(N)=O (some centres not stated) | -7.18 | 2.57 | 6.59 | -44.2 | -2.22
CN1CCN(C(=O)c2ccc3nnc(C4CCCC4)n3c2)CC1 | 0.094 | 2.05 | 1.09 | -4.27 | -2.75

Compound | activity change, negative = inhibition [1] [%] | activity change, negative = inhibition [2] [%] | activity change, negative = inhibition [3] [%] | activity change, negative = inhibition [4] [%] | activity change, negative = inhibition [5] [%]
Cc1ccc(NC(=O)Cn2nc3n(C(C)C)c(=O)c4ccc(C(=O)NC(C)C)cc4n3c2=O)cc1F | 5.15 | 0.839 | 4.13 | 4.22 | 4.59
CN1C(=O)c2cc(NC(=O)C3CCN(S(=O)(=O)N4CCCC4)CC3)ccc2N2CCN=C12 | -6.58 | -5.17 | -2.09 | -10.4 | -7.01
CCCn1c(=O)c2ccc(C(=O)NC3CCCCC3)cc2n2c(=O)n(CC(=O)N(C)c3ccccc3)nc12 | 3.2 | 4.74 | 6.58 | -3.1 | -0.218
CO[C@@H]1CO[C@H]2[C@@H]1OC[C@@H]2NC(=S)Nc1ccccc1 | -2.39 | -2.58 | 0.7 | -5.86 | -1.92
CCCn1c(=O)c2ccc(C(=O)NC(C)CC)cc2n2c(=O)n(CC(=O)Nc3ccc(C)cc3C)nc12 (configuration not stated) | -6.76 | -2.94 | -8.73 | -9.58 | -5.77
COC[C@@H]1CN(S(=O)(=O)c2ccccc2C)C[C@H]1c1nc(C)no1 | 3.05 | -1.56 | 1.61 | -2.9 | 0.204
CCCN(Cc1ccc(F)cc1)C(=O)c1cnc(-c2ccc(C)cc2)[nH]c1=O | -8.94 | -4.61 | -0.507 | -6.74 | 1.06
CCC[C@@H]1CN(C(=O)CCn2cc(Cl)cn2)C[C@H]1C(=O)O | -0.752 | 1.13 | 1.27 | -0.589 | 2.47
CC(C)CN1CCN(C(=O)c2ccc3c(c2)CC(=O)N3Cc2ccc(F)cc2)CC1 | -4.56 | 0.209 | -13.9 | -11.6 | -5.36
COCCCN1CC2(CCN(C(=O)c3cc(C(C)C)oc3C)CC2)CC1=O | -1.2 | -0.043 | 3.25 | 2.71 | 2.81
COc1ccccc1OCC(O)CN1CCN(CC(=O)Nc2c(C)cccc2C)CC1 (configuration not stated) | 2.96 | 7.74 | 7.71 | -7.28 | 0.412
CC1(C)C(=O)Nc2ccc(S(=O)(=O)N3CCCC(c4nn[nH]n4)C3)cc21 (configuration not stated) | -4.19 | -2.49 | 1.35 | -6.24 | -0.885
Cc1coc2c1CC1OC1(C)CCC1OC1(C)C2 (configuration not stated) | -0.16 | -3.06 | 8.94 | -13.7 | 2.03
O=[N+]([O-])c1cccc2cn[nH]c12 | -8.03 | 14.9 | 5.71 | -26.9 | 5.12
Cc1nnc2n1CCC(NC(=O)c1cccn1C)CC2 (configuration not stated) | -3.83 | -2.46 | -1.99 | -5.44 | -6.34
CC(C)CC(=O)O[C@@H]1O[C@H](CO)[C@@H](O[C@H]2O[C@H](C)[C@@H](N[C@H]3C=C(CO)[C@@H](O[C@H]4O[C@H](CO)[C@@H](O[C@H]5O[C@H](CO)[C@@H](O[C@H]6O[C@H](CO)[C@@H](O)[C@H](O)[C@H]6O)[C@H](O)[C@H]5O)[C@H](O)[C@H]4O)[C@H](O)[C@H]3O)[C@H](O)[C@H]2O)[C@H](O)[C@H]1O | 2.7 | 0.366 | -2.77 | -10.3 | 1.66
C=CCCC(CN1CCOCC1)Oc1ccc(Cn2ccnc2)cn1 (configuration not stated) | -2.54 | -4.89 | -2.36 | -6.51 | -0.568
CCCn1c(=O)c2ccc(C(=O)NC(C)C)cc2n2c(=O)n(CC(=O)NCc3ccc(Cl)cc3)nc12 | 0.554 | 0 | 1.09 | -6.7 | -2.88
C/C1=C\CCC(C)CCO[C@@H]2O[C@H](CO[C@@H]3OC[C@H](O)[C@H](O)[C@H]3OC1=O)[C@@H](O)[C@H](O)[C@H]2O (some centres not stated) | 2.37 | -0.888 | 7.23 | -12 | -8.57
COc1cc(/C=C(\C#N)C(=O)Nc2nnc(C(F)(F)F)s2)ccc1OCc1ccc(C(F)(F)F)cc1C(F)(F)F | -25.5 | 0.961 | -10.3 | -20.6 | -1.12

Compound | activity change, negative = inhibition [1] [%] | activity change, negative = inhibition [2] [%] | activity change, negative = inhibition [3] [%] | activity change, negative = inhibition [4] [%] | activity change, negative = inhibition [5] [%]
CCCCc1cc(C[C@@H]2C[C@H](NC(=O)NCC)C2(C)C)no1 | -6.04 | -7.67 | -2 | -8.17 | -3.8
CC1=CC2/C=C(\C)CCC(O)C/C=C/C(=O)OC23C(=O)NC(CC(C)C)C3C1C (configuration not stated) | -7.68 | 6.99 | 6.17 | -7.67 | -5.01
CC(C)C(=O)N1CCC(NCCOc2ccccc2Cl)CC1 | -1.65 | 1.37 | -1.8 | -4.93 | -8
CC1(C(=O)NC2CCCCC2)Cn2c(cc3sccc32)C(=O)N1Cc1ccccn1 (configuration not stated) | 5.73 | 3.17 | 7.62 | 4.22 | 4.44
CC1(C(=O)NC2CCCCC2)Cn2c(cc3ccccc32)C(=O)N1Cc1ccc2c(c1)OCO2 (configuration not stated) | -14.9 | -1.67 | -7.77 | -18.2 | -6.87
CN(Cc1cccn1C)C(=O)c1ccccc1F | -2.39 | -3.33 | -0.938 | -13.5 | -18.9
CCOC(=O)c1cc2n(n1)CC(C)(C(=O)NC1CCCCC1)N(c1ccccc1F)C2=O (configuration not stated) | 1.75 | 0 | -4.68 | 7.03 | 1.56
COc1ccc(C(=O)N2CCCCC(NC(=O)NCc3ccco3)C2)cc1 (configuration not stated) | -1.69 | -4.41 | -8.38 | -5.27 | -3.96
Cc1nnc2n1CCC(NC(=O)c1cnccn1)CC2 (configuration not stated) | -2.47 | -1.26 | -1.8 | -4.76 | 2.8
CCc1ccc(S(=O)(=O)c2nnn3c2nc(NCCCOC(C)C)c2cc(Cl)ccc23)cc1 | -11.3 | 2.09 | -6.64 | -6.44 | -6.84
CCCNCC(O)COc1ccccc1C(=O)CCc1ccccc1 (configuration not stated) | 2.31 | 13.1 | -5.48 | -3.75 | 8.74
O=C(Nc1ccc(Cl)cc1F)c1ccccc1O | 1.39 | 2.7 | 7.99 | -12.4 | 2.04
CCC(C)NC(=O)CN1CN(c2ccccc2)C2(CCN(C(=O)Nc3ccccc3C)CC2)C1=O (configuration not stated) | -5.81 | -6.26 | -2.46 | -14.4 | -7.47
CCc1ccc(C2c3cccn3-c3sc4c(c3CN2C(=O)Nc2ccc(OC)cc2OC)CCCC4)cc1 (configuration not stated) | 0.337 | 0.431 | 4.37 | 8.47 | 9.21
COC(=O)C(Cc1c[nH]c2ccccc12)NC(=O)c1ccc(Br)cc1 (configuration not stated) | 1.88 | 2.66 | -2.85 | 1.59 | -0.539
O=C(c1ccco1)N1CCC2(CCN(CCCn3cccn3)CC2)C(CO)C1 (configuration not stated) | 4.38 | -6.45 | -2.26 | -10.4 | -5.93
COc1ccc(NC(=O)C[C@@H]2C[C@@H](C(C)C)[C@H](CC#N)C=C2C)cn1 | -8.73 | -6.33 | -5.25 | -25.2 | -10.5
Cn1c(=O)c2ccc(C(=O)NC3CCCC3)cc2n2c(=O)n(CC(=O)Nc3cc(F)ccc3F)nc12 | 3.94 | 0 | 2.5 | -0.252 | 0.018
Cc1cc(C)c(S(=O)(=O)NCCc2n[nH]c(Cc3ccccc3)n2)cc1C | 14.7 | 0 | 12.3 | 0.547 | 5.38
